Measurements: article PMC12820563
The list shows a part of the results. The list includes weakly bound sequences.

target: T1, MBP-FoxP3dN (UniProt Q99JB6); assay: PD-seq (MBP pull-down with sequencing); conditions: 20 mM Tris-HCl pH 7.5, 100 mM NaCl, 1.5 mM MgCl2, 0.4 uM protein, 0.1 uM dsDNA library, 30 min, room temperature, amylose pull-down; high values mean tight binding; double strand, one strand shown
T1 sequence: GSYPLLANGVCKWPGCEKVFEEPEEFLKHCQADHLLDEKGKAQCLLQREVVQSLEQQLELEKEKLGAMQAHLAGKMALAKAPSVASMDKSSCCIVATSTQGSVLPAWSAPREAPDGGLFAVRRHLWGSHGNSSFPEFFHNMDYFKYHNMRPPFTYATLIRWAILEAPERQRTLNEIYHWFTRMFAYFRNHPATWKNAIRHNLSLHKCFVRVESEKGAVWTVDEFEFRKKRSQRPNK

| Sequence | binding signal (RPM ratio (pull-down/input)) |
| --- | --- |
| GATGATTGTTCTCCCAGCTGATGAATTCGGCCCCTCGAGTAAACAAATTTTCCTAATCTTTCTGTTCAAGCGCCATCTAC | 1.04 |
| GATGATTGTTCTCCCAGCTGATGAATTGCCTGCGTCGAGTAAACAAATTTTCCTAATCTTTCTGTTCAAGCGCCATCTAC | 0.937 |
| GATGATTGTTCTCCCAGCTGATGAATTACTAACCTCGAGTAAACAAATTTTCCTAATCTTTCTGTTCAAGCGCCATCTAC | 0.423 |
| GATGATTGTTCTCCCAGCTGATGAATTGCATGGCTCGAGTAAACAAATTTTCCTAATCTTTCTGTTCAAGCGCCATCTAC | 1.19 |
| GATGATTGTTCTCCCAGCTGATGAATTCGTATGATCGAGTAAACAAATTTTCCTAATCTTTCTGTTCAAGCGCCATCTAC | 0.73 |
| GATGATTGTTCTCCCAGCTGATGAATTTTCCAGCTCGAGTAAACAAATTTTCCTAATCTTTCTGTTCAAGCGCCATCTAC | 0.181 |
| GATGATTGTTCTCCCAGCTGATGAATTTGGGAAATCGAGTAAACAAATTTTCCTAATCTTTCTGTTCAAGCGCCATCTAC | 0.392 |
| GATGATTGTTCTCCCAGCTGATGAATTAGATGACTCGAGTAAACAAATTTTCCTAATCTTTCTGTTCAAGCGCCATCTAC | 1.2 |
| GATGATTGTTCTCCCAGCTGATGAATTCTTCATGTCGAGTAAACAAATTTTCCTAATCTTTCTGTTCAAGCGCCATCTAC | 0.297 |
| GATGATTGTTCTCCCAGCTGATGAATTCTTTCATTCGAGTAAACAAATTTTCCTAATCTTTCTGTTCAAGCGCCATCTAC | 0.253 |
| GATGATTGTTCTCCCAGCTGATGAATTTCTTACATCGAGTAAACAAATTTTCCTAATCTTTCTGTTCAAGCGCCATCTAC | 0.278 |
| GATGATTGTTCTCCCAGCTGATGAATTCCCAAGGTCGAGTAAACAAATTTTCCTAATCTTTCTGTTCAAGCGCCATCTAC | 0.171 |
| GATGATTGTTCTCCCAGCTGATGAATTAGGCACCTCGAGTAAACAAATTTTCCTAATCTTTCTGTTCAAGCGCCATCTAC | 0.988 |
| GATGATTGTTCTCCCAGCTGATGAATTCCATAGCTCGAGTAAACAAATTTTCCTAATCTTTCTGTTCAAGCGCCATCTAC | 0.306 |
| GATGATTGTTCTCCCAGCTGATGAATTTCCATGTTCGAGTAAACAAATTTTCCTAATCTTTCTGTTCAAGCGCCATCTAC | 0.453 |
| GATGATTGTTCTCCCAGCTGATGAATTTTCAAATTCGAGTAAACAAATTTTCCTAATCTTTCTGTTCAAGCGCCATCTAC | 0.224 |
| GATGATTGTTCTCCCAGCTGATGAATTGTCAAGCTCGAGTAAACAAATTTTCCTAATCTTTCTGTTCAAGCGCCATCTAC | 0.338 |
| GATGATTGTTCTCCCAGCTGATGAATTATCGAAATCGAGTAAACAAATTTTCCTAATCTTTCTGTTCAAGCGCCATCTAC | 0.382 |
| GATGATTGTTCTCCCAGCTGATGAATTGTGCTCTTCGAGTAAACAAATTTTCCTAATCTTTCTGTTCAAGCGCCATCTAC | 0.852 |
| GATGATTGTTCTCCCAGCTGATGAATTCCACAGCTCGAGTAAACAAATTTTCCTAATCTTTCTGTTCAAGCGCCATCTAC | 0.275 |
| GATGATTGTTCTCCCAGCTGATGAATTGCTCATATCGAGTAAACAAATTTTCCTAATCTTTCTGTTCAAGCGCCATCTAC | 0.658 |

| Sequence | binding signal (RPM ratio (pull-down/input)) |
| --- | --- |
| GATGATTGTTCTCCCAGCTGATGAATTCACCCAATCGAGTAAACAAATTTTCCTAATCTTTCTGTTCAAGCGCCATCTAC | 0.262 |
| GATGATTGTTCTCCCAGCTGATGAATTGCTACTCTCGAGTAAACAAATTTTCCTAATCTTTCTGTTCAAGCGCCATCTAC | 0.823 |
| GATGATTGTTCTCCCAGCTGATGAATTGGCCCATTCGAGTAAACAAATTTTCCTAATCTTTCTGTTCAAGCGCCATCTAC | 0.377 |
| GATGATTGTTCTCCCAGCTGATGAATTTGACCGGTCGAGTAAACAAATTTTCCTAATCTTTCTGTTCAAGCGCCATCTAC | 0.206 |
| GATGATTGTTCTCCCAGCTGATGAATTACTGCAGTCGAGTAAACAAATTTTCCTAATCTTTCTGTTCAAGCGCCATCTAC | 0.609 |
| GATGATTGTTCTCCCAGCTGATGAATTGCTAAACTCGAGTAAACAAATTTTCCTAATCTTTCTGTTCAAGCGCCATCTAC | 0.535 |
| GATGATTGTTCTCCCAGCTGATGAATTGCTCTAGTCGAGTAAACAAATTTTCCTAATCTTTCTGTTCAAGCGCCATCTAC | 0.382 |
| GATGATTGTTCTCCCAGCTGATGAATTATTGGAATCGAGTAAACAAATTTTCCTAATCTTTCTGTTCAAGCGCCATCTAC | 0.313 |
| GATGATTGTTCTCCCAGCTGATGAATTGGATCCGTCGAGTAAACAAATTTTCCTAATCTTTCTGTTCAAGCGCCATCTAC | 0.219 |
| GATGATTGTTCTCCCAGCTGATGAATTATATCAGTCGAGTAAACAAATTTTCCTAATCTTTCTGTTCAAGCGCCATCTAC | 0.471 |
| GATGATTGTTCTCCCAGCTGATGAATTGGCGCAATCGAGTAAACAAATTTTCCTAATCTTTCTGTTCAAGCGCCATCTAC | 3.12 |
| GATGATTGTTCTCCCAGCTGATGAATTGTGATCCTCGAGTAAACAAATTTTCCTAATCTTTCTGTTCAAGCGCCATCTAC | 1.17 |
| GATGATTGTTCTCCCAGCTGATGAATTCTGCGATTCGAGTAAACAAATTTTCCTAATCTTTCTGTTCAAGCGCCATCTAC | 1.64 |
| GATGATTGTTCTCCCAGCTGATGAATTCGATGTCTCGAGTAAACAAATTTTCCTAATCTTTCTGTTCAAGCGCCATCTAC | 3.27 |
| GATGATTGTTCTCCCAGCTGATGAATTACACGGATCGAGTAAACAAATTTTCCTAATCTTTCTGTTCAAGCGCCATCTAC | 0.302 |
| GATGATTGTTCTCCCAGCTGATGAATTTGTTGACTCGAGTAAACAAATTTTCCTAATCTTTCTGTTCAAGCGCCATCTAC | 7.34 |
| GATGATTGTTCTCCCAGCTGATGAATTAGAATCATCGAGTAAACAAATTTTCCTAATCTTTCTGTTCAAGCGCCATCTAC | 0.532 |
| GATGATTGTTCTCCCAGCTGATGAATTTGCCACGTCGAGTAAACAAATTTTCCTAATCTTTCTGTTCAAGCGCCATCTAC | 1.2 |
| GATGATTGTTCTCCCAGCTGATGAATTTAATCGGTCGAGTAAACAAATTTTCCTAATCTTTCTGTTCAAGCGCCATCTAC | 0.308 |
| GATGATTGTTCTCCCAGCTGATGAATTGCAGTACTCGAGTAAACAAATTTTCCTAATCTTTCTGTTCAAGCGCCATCTAC | 0.876 |
| GATGATTGTTCTCCCAGCTGATGAATTTTCGAGGTCGAGTAAACAAATTTTCCTAATCTTTCTGTTCAAGCGCCATCTAC | 0.221 |

| Sequence | binding signal (RPM ratio (pull-down/input)) |
| --- | --- |
| GATGATTGTTCTCCCAGCTGATGAATTAACAAGTTCGAGTAAACAAATTTTCCTAATCTTTCTGTTCAAGCGCCATCTAC | 0.391 |
| GATGATTGTTCTCCCAGCTGATGAATTATGGTTCTCGAGTAAACAAATTTTCCTAATCTTTCTGTTCAAGCGCCATCTAC | 1.18 |
| GATGATTGTTCTCCCAGCTGATGAATTGAGACGGTCGAGTAAACAAATTTTCCTAATCTTTCTGTTCAAGCGCCATCTAC | 0.242 |
| GATGATTGTTCTCCCAGCTGATGAATTGAATAGGTCGAGTAAACAAATTTTCCTAATCTTTCTGTTCAAGCGCCATCTAC | 0.32 |
| GATGATTGTTCTCCCAGCTGATGAATTTCTACCATCGAGTAAACAAATTTTCCTAATCTTTCTGTTCAAGCGCCATCTAC | 0.265 |
| GATGATTGTTCTCCCAGCTGATGAATTCGATTGCTCGAGTAAACAAATTTTCCTAATCTTTCTGTTCAAGCGCCATCTAC | 3.32 |
| GATGATTGTTCTCCCAGCTGATGAATTGACACCATCGAGTAAACAAATTTTCCTAATCTTTCTGTTCAAGCGCCATCTAC | 0.744 |
| GATGATTGTTCTCCCAGCTGATGAATTCCCGTCGTCGAGTAAACAAATTTTCCTAATCTTTCTGTTCAAGCGCCATCTAC | 0.373 |
| GATGATTGTTCTCCCAGCTGATGAATTAGTCTATTCGAGTAAACAAATTTTCCTAATCTTTCTGTTCAAGCGCCATCTAC | 1.33 |
| GATGATTGTTCTCCCAGCTGATGAATTGTGAGGATCGAGTAAACAAATTTTCCTAATCTTTCTGTTCAAGCGCCATCTAC | 0.49 |
| GATGATTGTTCTCCCAGCTGATGAATTCTTACAATCGAGTAAACAAATTTTCCTAATCTTTCTGTTCAAGCGCCATCTAC | 0.346 |
| GATGATTGTTCTCCCAGCTGATGAATTCCAAGATTCGAGTAAACAAATTTTCCTAATCTTTCTGTTCAAGCGCCATCTAC | 0.239 |
| GATGATTGTTCTCCCAGCTGATGAATTCAGAAGATCGAGTAAACAAATTTTCCTAATCTTTCTGTTCAAGCGCCATCTAC | 0.184 |
| GATGATTGTTCTCCCAGCTGATGAATTGGTGTAGTCGAGTAAACAAATTTTCCTAATCTTTCTGTTCAAGCGCCATCTAC | 1.41 |
| GATGATTGTTCTCCCAGCTGATGAATTCATTCTCTCGAGTAAACAAATTTTCCTAATCTTTCTGTTCAAGCGCCATCTAC | 0.284 |
| GATGATTGTTCTCCCAGCTGATGAATTACCTGGTTCGAGTAAACAAATTTTCCTAATCTTTCTGTTCAAGCGCCATCTAC | 0.253 |
| GATGATTGTTCTCCCAGCTGATGAATTCCTTGGGTCGAGTAAACAAATTTTCCTAATCTTTCTGTTCAAGCGCCATCTAC | 0.233 |
| GATGATTGTTCTCCCAGCTGATGAATTAGGTATGTCGAGTAAACAAATTTTCCTAATCTTTCTGTTCAAGCGCCATCTAC | 1.85 |
| GATGATTGTTCTCCCAGCTGATGAATTCGGTATATCGAGTAAACAAATTTTCCTAATCTTTCTGTTCAAGCGCCATCTAC | 2.02 |
| GATGATTGTTCTCCCAGCTGATGAATTAGGTGAATCGAGTAAACAAATTTTCCTAATCTTTCTGTTCAAGCGCCATCTAC | 0.334 |
| GATGATTGTTCTCCCAGCTGATGAATTGGACGACTCGAGTAAACAAATTTTCCTAATCTTTCTGTTCAAGCGCCATCTAC | 0.259 |
